Paper PMC12040169 (PLOS Biology, 2025)
The other results are listed elsewhere or left out.

Each compound was assayed on T1, C. trachomatis L2/434/Bu expressing GFP (CTL2-GFP). Conditions: total inclusion area; 28.5 h, 10 µM; inhibitor.
T1 construct: L2/434/Bu GFP intracellular growth in HeLa cells
Parameters: species or system HeLa; C. trachomatis total inclusion area by high-content imaging, normalised to DMSO
Outline: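 Bulk GFP and resorufin signals were read first. Wells were then fixed, stained with Hoechst and imaged to detect GFP inclusions and host nuclei. MICs followed the previously described calculation.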

SMILES | % of control remaining
CN1CCN(c2nc(-c3cccc4ncccc34)cnc2N)CC1 [CBK063465] | 115.529
CN(C)C(=O)CSc1cnc2ccccc2n1 [CBK086626] | 103.339
CN1CCCC(NC(=O)CCCOc2ccccc2F)C1 (stereo not drawn) [CBK282072] | 85.9871
CC(=O)N1CCN(c2cncc(-c3ccc(O)cc3)n2)CC1 [CBK126948T] | 82.754
CC1CCCN(CC(O)c2ccc3c(c2)CC(C)N3C(=O)C2CC2)C1 (stereo not drawn) [CBK282125] | 104.939
C#CCNC(=O)c1nn(-c2nc3ccccc3s2)c2ccccc12 [CBK048486] | 90.8718
Oc1ccccc1/C=N/Nc1nnc(-c2ccccc2)c(-c2ccccc2)n1 [CBK262003] | 92.6274
O=C(N[C@H]1CO[C@H]2[C@@H]1OC[C@@H]2Nc1nccc(-c2cccs2)n1)c1ccccc1 [CBK289516] | 76.5299
COc1ccccc1Oc1ccc(S(=O)(=O)N2CCOCC2)cc1S(=O)(=O)N1CCOCC1 [CBK265176] | 105.295
CN1CCN(C(c2ccccc2)C(O)C(=O)c2c[nH]c3ccccc23)CC1 (stereo not drawn) [CBK267823] | 88.3636
O=C1CC(C(=O)Nc2ccccn2)c2ccccc2N1 (stereo not drawn) [CBK297771] | 91.4344
Cc1nn(C)c(C)c1CN(C(=O)C(C)Oc1cccc(F)c1)C1CC1 (stereo not drawn) [CBK281479] | 101.282
CC(C)(C)OC(=O)N1CCN(CCC(=O)O)CC1 [CBK287143] | 104.028
CC(=O)c1ccc(OCC(=O)Nc2cnc(-c3cccc(C)c3)c(-c3ccc(N)cc3)n2)cc1 [CBK036722] | 132.941
O=C(NCCCc1nc2cc(F)ccc2[nH]1)[C@@H]1C[C@@H]2C=C[C@H]1C2 [CBK281665] | 93.2107
O=C(O)c1ccc(S(=O)(=O)c2ccc3c(c2)C(=O)N(c2nccs2)C3=O)cc1 [CBK261189] | 97.1599
CN1C2CCCC1CC(OC(=O)c1cccc3[nH]cnc13)C2 (stereo not drawn) [CBK090162] | 105.878
CCCc1[nH]n(-c2ccc([N+](=O)[O-])cc2)c(=O)c1/C=N/N1CCN(C)CC1 [CBK262781] | 114.483
COc1ccc(Cl)cc1N/C=C(/C#N)c1nc(-c2cc3cc([N+](=O)[O-])ccc3oc2=O)cs1 [CBK263014] | 129.36
CN1CCN(Cc2n[nH]c(=S)n2-c2cccc(C#N)c2)CC1 [CBK015465] | 103.422
O=C(O)c1ccc(S(=O)(=O)NC2CCS(=O)(=O)C2)cc1 (stereo not drawn) [CBK262477] | 92.4179

SMILES | % of control remaining
COc1ccc(S(=O)(=O)NCc2ccccn2)cc1NC(C)=O [CBK269554] | 97.529
FC(F)(F)c1ccnc(Sc2cccs2)n1 [CBK115245] | 112.215
NC(=O)Cn1cc(CN2CCC(c3ccccc3)C2)c2ccccc21 (stereo not drawn) [CBK282803] | 73.802
O=C(CO/N=C\c1cccc([N+](=O)[O-])c1)Nc1ccccc1C(=O)O [CBK262051] | 113.409
O=C(C1CCCCC1)N1CCC(n2c(=O)oc3ccccc32)CC1 [CBK284348] | 95.2281
Cc1cc(C)n(CCCn2cncc2-c2cn(C)nc2C)n1 [CBK281772] | 96.7989
CCC12CN3CC(CC)(CN(C1)C3c1c(C)[nH]c3ccccc13)C2=O (stereo not drawn) [CBK265547] | 104.188
OCCNc1nc(-c2ccccc2)cn2ccnc12 [CBK066379] | 52.3261
Clc1cccc(-c2nc(NCCCN3CCOCC3)c3ccccc3n2)c1 [CBK267309] | 82.8067
Cn1cc(N2CCN(C(=O)CCOc3ccccc3)CC2)cn1 [CBK305473] | 25.5283
CCc1cc(-c2n[nH]cc2-c2nc(C)cs2)c(O)cc1OC [CBK287934] | 10.5545
CCCS(=O)(=O)N1CCCC(Cc2ccccc2C)(C(=O)OCC)C1 (stereo not drawn) [CBK307502] | 67.0684
NC(=O)C(=O)Nc1nc(-c2ccccc2)cs1 [CBK263005] | 103.2
O=C1CCCN1CCCNC(=O)N1CCN(Cc2ccccc2)CC1 [CBK155658] | 98.9423
O=C(O)c1ccccc1NS(=O)(=O)Cc1ccccc1[N+](=O)[O-] [CBK042373] | 101.921
Cc1c(C(=O)N2CCNC(=O)C2C(C)C)cnn1-c1ccc(Br)cc1 (stereo not drawn) [CBK306472] | 37.4529
Cc1cc(Cl)c(S(=O)(=O)N(C)C)cc1OCC(=O)Nc1ccccc1 [CBK269705] | 80.0537
Cc1c(NC(=O)CCCC(=O)O)cccc1C(=O)O [CBK265525] | 115.622
Cc1cccc(Cn2nc(C)c(NC(=O)COc3ccccc3)c2C)c1 [CBK270007] | 115.721
CCc1nc2c(OCC=C(C)C)cccn2c1N(C)C(=O)c1cccc(OC)c1 [CBK147448] | 98.9421
CCOC(=O)c1c(NC(=O)CC2Nc3ccccc3NC2=O)sc(C)c1C (stereo not drawn) [CBK263381] | 58.4022

SMILES | % of control remaining
Cc1c(CN(Cc2ccc(F)cc2)CC2CCCO2)cnn1C (stereo not drawn) [CBK282589] | 99.9629
O=C(NCc1ccccc1Cl)C1CCCN(S(=O)(=O)c2ccccc2)C1 (stereo not drawn) [CBK269086] | 112.817
O=C(c1ccc(OC(F)F)cc1)N1CCCCC1 [CBK074223] | 99.7335
CS(=O)(=O)c1ccc(C(=O)Nc2nccs2)cc1 [CBK255213] | 102.897
N/C(=N/c1ccccn1)C(F)(F)F [CBK021049] | 84.3624
O=C(c1cccnc1)N1CCN(CC2(c3ccccc3)CC2)CC1 [CBK282906] | 102.261
O=C(O)c1ccc(Oc2ccc([N+](=O)[O-])cc2)cc1C(=O)O [CBK260961] | 100.365
Cc1ccc(NC(=O)NCCC2=CCCCC2)cc1Cl [CBK044135] | 104.948
O=C(c1nccs1)C1CCN(C(=O)Cc2ccccc2Cl)CC1 [CBK284162] | 84.8017
COCCCOc1cc(N2CCCC2)ncn1 [CBK115896] | 94.833
CCC(CC)(CC(=O)Nc1ccc(N2CCCC2=O)c(C)c1)C(=O)O [CBK297881] | 98.9435
CCCC(=O)c1ccc(S(=O)(=O)N2CCCN(Cc3ccc(F)c(C(F)(F)F)c3)CC2)cc1 [CBK062918] | 60.308
Cc1ccc(N2CC(C(=O)NCCc3ccc(S(N)(=O)=O)cc3)CC2=O)cc1 (stereo not drawn) [CBK267531] | 106.893
CCCCC(NC(=O)c1cc2ccccc2[nH]1)C(=O)O (stereo not drawn) [CBK286647] | 91.6573
Cn1ccnc1C(NC(=O)c1ccncc1)c1ccc(F)c(F)c1 (stereo not drawn) [CBK283808] | 60.803
CN1CCc2c(c(NCC3CCCO3)nc3[nH]nc(N)c23)C1 (stereo not drawn) [CBK287955] | 97.5841
O=C(O)C1CCCCC1C(=O)Nc1ccc(S(=O)(=O)N2CCOCC2)cc1 (stereo not drawn) [CBK268010] | 109.017
O=S(=O)(Nc1ccc(-c2nnn[nH]2)cc1)c1ccc(F)c(C(F)(F)F)c1 [CBK154759] | 113.472
Cc1cc(NC2CC3CCCC(C2)N3C)nc(N)n1 (stereo not drawn) [CBK170333] | 47.41
CC(=O)N1CCC2(C/C=C/C[C@H]3CN(Cc4nccs4)CC[C@H]3NC(=O)CNC2=O)CC1 [CBK292169] | 89.3911
COc1ccc(CN2Cc3cccc(C(=O)O)c3C2=O)cc1OC [CBK291237] | 115.592

SMILES | % of control remaining
COCCNC(=O)c1nn(-c2cccc(C(C)C)c2)cc1O [CBK304884] | 80.8029
O=C(Nc1sc2c(c1C(=O)NCCc1ccccc1)CCC2)c1sc2ccccc2c1Cl [CBK266379] | 107.841
O=C1NCC2(C/C=C/CCOc3ccccc31)CCN(C(=O)c1ccncc1)CC2 [CBK292018] | 95.427
O=C(CN1CCCc2ccccc21)c1ccsc1 [CBK138333] | 102.206
Cc1ccc(-c2ccc(N3CCN(C(=O)c4ccco4)CC3)nc2)cc1C [CBK037775] | 67.8877
CSCCC(C(=O)O)n1c(S)nnc1-c1ccc2ccccc2n1 (stereo not drawn) [CBK269230] | 92.8927
Cc1ccc(N2NC(=O)/C(=C/c3ccc(-c4ccc5c(c4)C(=O)NC5=O)o3)C2=O)cc1C [CBK262963] | 76.6415
OCCN(Cc1cccnc1)Cc1cccn1-c1ccc(F)cc1F [CBK283042] | 116.326
CN1CCN(NC(=O)CN(C)S(=O)(=O)c2cc(Cl)ccc2Cl)CC1 [CBK267366] | 109.071
CCNc1cc(-c2ccc(Cl)cc2)ncn1 [CBK090880] | 114.553
COCCNc1nc(-c2ccccc2OC)ccc1C(=O)NCCNC(C)=O [CBK105974] | 101.604
Cc1csc2c(N3CCCC3CC(=O)c3cnn(C)c3)ncnc12 (stereo not drawn) [CBK304429] | 58.4382
Cn1nccc1NS(=O)(=O)c1cc(C(=O)O)c(Cl)cc1F [CBK062712] | 82.7654
Cc1cccn2cc(CNC(=O)C(C)(C)C)nc12 [CBK304348] | 80.4376
O=C1CC(=O)N(Cc2ccc(F)cc2)C(=O)N1 [CBK291156] | 127.955
COC(=O)C1=C(C(=O)OC)SC(=C2C(=S)C(C)(C)N(C(=O)c3ccc4ccccc4c3)c3cc(C)ccc32)S1 [CBK261622] | 91.3385
COC(=O)COc1ccc(C2Nc3c(Cl)ccc(C(=O)O)c3C3C=CCC32)cc1 (stereo not drawn) [CBK268961] | 92.4281
COC(=O)c1ccc(S(=O)(=O)C(F)(F)F)cc1N [CBK018172] | 65.2845
